# Test results from PubChem BioAssay AID757 (NMMLSC, 2007).
# The whole screen tested about 190,000 compounds, of which about 520 (0.27%) were called active. The shares of active, inactive and inconclusive entries below differ from those in the screen.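 Rule for the calls: active = GTP binding activity at least 20 points away from the 100% control level, either lower or higher; inconclusive = compound flagged as likely green fluorescent, judged across all proteins; inactive = the rest.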
# Biological target: Ras-related C3 botulinum toxin substrate 1 (Homo sapiens) (UniProt P63000)
# Experiment: wildtype Rac1 GTP binding modulators, primary screen, biochemical, GST-Rac1 beads, flow cytometry, multiplex (AID 757)
# Conditions: fluorescent GTP binding, at 10 µM, actives lie on both sides, 0 = cold GTP competed, 100 = untreated
row,SMILES,GTP binding activity (% of control)
1,O=C(Cn1cnc2cc([N+](=O)[O-])ccc2c1=O)NCCc1ccc(Cl)cc1,inconclusive: 70%
2,CCOc1ccc(C2=Nn3c(nnc3-c3ccccn3)SC2)cc1,inconclusive: 88%
3,CCOC(=O)c1ccc(NC(=O)CCc2ccc(CC)o2)cc1,inconclusive: 107%
4,Cc1cc(NS(=O)(=O)c2ccc(Nc3nc(-c4ccc(C)c(C)c4)cs3)cc2)no1,inactive: 100%
5,O=C1c2ccccc2CCC12N=NCC2c1ccccc1 (stereo not drawn),inactive: 96%
6,CCn1nnnc1SCC(=O)N(C1CCCCC1)C1CCCCC1,inconclusive: 94%
7,O=C(C/C=N/OCc1c(Cl)cccc1Cl)c1cnc(-c2ccccc2)s1,inconclusive: 95%
8,Cn1c(-c2cnn(-c3ccccc3)c2-n2cccc2)n[nH]c1=S,inactive: 98%
9,COc1cc(C(=O)NCCCNc2nc3cc(C)c(C)cc3cc2C#N)cc(OC)c1OC,inactive: 102%
10,CC1(C)OC(=O)C(=Cc2ccc(-c3ccc(Cl)c(C(=O)O)c3)o2)C(=O)O1,inconclusive: 86%
11,CNC(=S)N1CCN(c2nc3ccccc3s2)CC1,inactive: 100%
12,O=C(CN1C(=O)COc2ccccc21)N1CCc2ccccc21,inconclusive: 105%
13,COc1cc(NC(=O)COC(=O)Cc2ccc(-c3ccccc3)cc2)cc(OC)c1,inactive: 98%
14,CCS(=O)(=O)CCSC(=N)N,inactive: 104%
15,Cc1cccc(NC(=O)COc2cccc3c2CCN(Cc2ccccc2)C3=O)c1C,inactive: 100%
16,COC(=O)c1cc(NC(=O)c2ccccc2)c(=O)oc1/C=C/Nc1ccc(Oc2ccccc2)cc1,inconclusive: 213%
17,CC(C)CSc1n[nH]c(=S)s1,inconclusive: 94%
18,Cc1ccc(C)n1-c1ccc(C(=O)N2CCOCC2)cc1,inconclusive: 105%
19,CC1CC(C)CN(CC(=O)N2CCCc3c2c(=O)oc2ccc(OCc4ccccc4)cc32)C1 (stereo not drawn),inconclusive: 83%
20,COc1ccc(Cl)cc1N(CC(=O)NCC(C)C)S(=O)(=O)c1ccc(C)c([N+](=O)[O-])c1,inconclusive: 103%
21,Cc1ccc(OCC(=O)N/N=C\c2c(C)[nH]n(-c3ccccc3)c2=O)c([N+](=O)[O-])c1,inconclusive: 97%
22,Cc1ccc(CNC(=O)C2CN(S(C)(=O)=O)c3cc(Cl)ccc3O2)cc1 (stereo not drawn),inactive: 96%
23,COc1ccc(-n2c(C)cc(C(=O)CN3C(=O)C(=O)N(Cc4ccccc4)C3=O)c2C)cc1,inconclusive: 84%
24,O=C(Cn1cnc2sc(-c3ccccc3)cc2c1=O)NCc1ccco1,inconclusive: 105%

row,SMILES,GTP binding activity (% of control)
1,Cn1nnnc1SCC(=O)Nc1ccccc1N1CCCCC1,inconclusive: 105%
2,CCOC(=O)C1CCCN(Cc2cccc(Cl)c2)C1 (stereo not drawn),inconclusive: 106%
3,COc1ccc(-c2cnc3c(c2)CCC3(C#N)C#N)cc1,inconclusive: 95%
4,CC(=O)Nc1ccc(NC(=O)c2ccccc2C)cc1,inactive: 105%
5,Cc1nc(-c2cn[nH]c2)c2cc(C)oc2n1,inconclusive: 91%
6,COc1ccc(Nc2ccccc2C(=O)O)cc1,inconclusive: 122%
7,COc1cc(CNCc2cccs2)ccc1OCc1ccccc1,inconclusive: 104%
8,C/C(=N/NC(=O)CNS(=O)(=O)c1ccc(C)cc1)c1cccc([N+](=O)[O-])c1,inactive: 89%
9,CCCc1cc(-c2nc(N)ncc2-c2csc(C)n2)c(O)cc1OC,inconclusive: 92%
10,CCOC(=O)N1CCC(NC(=O)c2ccc3nc4ccccc4c(=O)n3c2)CC1,inconclusive: 88%
11,Cc1cc(C)cc(Oc2nc(C(F)(F)F)nc3ccccc23)c1,inconclusive: 96%
12,CCCCN(CCCC)CC(O)CN1C(=O)NC(C)(C)C1=O (stereo not drawn),inconclusive: 109%
13,COc1cc(SC#N)ccc1N=Cc1c(C)[nH]n(-c2ccc(C)c(C)c2)c1=O,active: 78%
14,O=C(CCCN1C(=O)/C(=C/c2cccc(Br)c2)SC1=S)Nc1ccccn1,inconclusive: 91%
15,O=C(NCC(=O)N(c1cnc2ccccc2c1)C(C(=O)NC1CCCC1)c1ccncc1)c1ccco1 (stereo not drawn),inconclusive: 107%
16,Cc1nc2ccccc2c2oc(C(=O)Nc3ccc4c(c3)OCCO4)cc12,inconclusive: 83%
17,c1ccc(-c2noc(-c3cccc4ccccc34)n2)nc1,inconclusive: 91%
18,COc1ncnc2sc3c(c12)CCCC3,inactive: 104%
19,COc1cccc(CNC(=O)CN2CCC(c3nc4ccc(C)cc4[nH]3)CC2)c1,inactive: 100%
20,Nn1c(SCC(=O)Nc2ccc3c(c2)OCO3)nnc1-c1ccncc1,inconclusive: 89%
21,O=C(COC(=O)CCc1nc2ccccc2s1)NC(=O)NCc1ccco1,inactive: 99%
22,COc1cccc2cc(/C(C)=N/NC(=O)c3ccco3)oc12,inconclusive: 95%
23,CC1(C)CC(=O)C2=C(C1)N(c1cccc(Cl)c1)C(=O)NC2(C(F)(F)F)C(F)(F)F,inactive: 102%
24,O=C(NCc1ccc2c(c1)OCO2)C1CCCN1S(=O)(=O)c1ccc(Cl)cc1 (stereo not drawn),inactive: 101%

row,SMILES,GTP binding activity (% of control)
1,CCOC(=O)C1(CC2CC2)CCN(C(=O)c2cccnc2C)CC1,inactive: 102%
2,CC(C)CNC(=O)C1CCCN(C(=O)NCc2ccccc2)C1 (stereo not drawn),inconclusive: 98%
3,O=C(O)c1ccc(Cl)c(S(=O)(=O)Nc2cccc(C(=O)Nc3cccc(C(F)(F)F)c3)c2)c1,inactive: 93%
4,COC(=O)/C(=C/c1ccco1)NC(=O)c1ccco1,inactive: 106%
5,C=CCn1c(=O)c2ccccc2n2c(SCC(=O)NCc3cccs3)nnc12,inconclusive: 107%
6,Cc1cc(N2CCN(C)CC2)nc2ccc(NC(=S)NCc3cccs3)cc12,inconclusive: 129%
7,Cc1cccc(NS(=O)(=O)c2cc([N+](=O)[O-])ccc2C)n1,inconclusive: 97%
8,COc1ccccc1NC(=O)Cn1c(O)c(N=NC(=O)c2ccccc2O)c2ccccc21,inconclusive: 92%
9,COCCCNC(=O)CCCC(=O)NCCCOC,inconclusive: 108%
10,CCCCOc1ccc2c(c1)/C(=C(\C(Cl)=C(Cl)Cl)[N+](=O)[O-])N2,inactive: 99%
11,CC1=NN(C(=O)c2ccc(Cn3nc(C)cc3C)o2)C(O)(C(F)(F)F)C1 (stereo not drawn),inactive: 110%
12,O=C(Cn1c2ccccc2c(=O)c2cc([N+](=O)[O-])ccc21)Nc1ccccc1Cl,inactive: 105%
13,COCCn1c(C)cc(C(=O)CSc2nc3ccccc3c(=O)n2C(C)COC)c1C (stereo not drawn),inactive: 97%
14,COc1cc(=O)n(C)c2ccccc12,inconclusive: 88%
15,Cc1nc2c(N=Nc3ccccc3F)c(N)nn2c(N)c1C#N,inconclusive: 87%
16,O=c1c2ccc([N+](=O)[O-])cc2ncn1Cc1ccccc1C(F)(F)F,inconclusive: 82%
17,Cc1ccc(S(=O)(=O)N2CCCCC2)cc1NC(=O)COC(=O)c1ccc(O)cc1,inactive: 96%
18,O=C(COC(=O)/C=C/c1cccs1)Nc1ccc2ccccc2c1,active: 74%
19,Cc1ccc2[nH]c(CCN(C)C)c(CC#N)c2c1,inconclusive: 113%
20,CCNC(=O)CSc1nc2ccccc2c(=O)n1-c1cc(OC)ccc1OC,inactive: 106%
21,COC(=O)c1nnn(-c2nonc2N)c1CSc1nnc(N)s1,inactive: 98%
22,CCN(CC)c1ccc2cc(-c3nc(-c4ccc(OC)cc4)cs3)c(=O)oc2c1,inconclusive: 320%
23,CC1=C(C)CC(C(=O)NNC(=O)c2csc3c2CCC(C(C)(C)C)C3)C(C(=O)O)C1 (stereo not drawn),inconclusive: 97%
24,CCc1ccc(C2C(C#N)=C(N)C(C#N)(C#N)C3=CCC(C(C)(C)C)CC32)cc1 (stereo not drawn),inactive: 104%

row,SMILES,GTP binding activity (% of control)
1,CN=C1NN=C(c2cc(C)n(-c3ccc(Cl)cc3)c2C)CS1,inactive: 97%
2,COc1cccc(C(=O)Nc2ccc(-c3nc4ccccc4o3)c(O)c2)c1,inconclusive: 94%
3,COC(=O)c1ncn(C2OC(COC(C)=O)C(OC(C)=O)C2OC(C)=O)n1 (stereo not drawn),inactive: 104%
4,N#CCCN(C(=O)COc1ccc(Cl)cc1Cl)c1ccccc1,inactive: 105%
5,CCN(CC(=O)Nc1ccc(Cl)c(S(=O)(=O)N(C)C)c1)CC(=O)NC(C)C,inconclusive: 94%
6,CCOC(=O)CNS(=O)(=O)c1ccc(C(=O)O)cc1,inconclusive: 104%
7,COc1ccc(C)cc1-n1nnnc1SCc1cc(=O)n2cc(C)ccc2n1,inconclusive: 106%
8,COc1cnn(-c2ccc(Br)cc2)c(=O)c1SCc1ccccc1,inconclusive: 108%
9,COc1ccc2c3c(cccc13)C(=O)N(O)C2=O,active: 79%
10,COc1cccc(/C=N/Nc2nc3ccccc3n3cnnc23)c1,inconclusive: 83%
11,O=C(CSc1cnc2ccccc2n1)NC1CCCC1,inconclusive: 107%
12,CC(=O)Nc1ccc(N2CCCCC2)cc1,inconclusive: 104%
13,COC(=O)c1cc(NCc2c(F)cccc2Cl)ccc1N1CCOCC1,inconclusive: 110%
14,CCOC(=O)c1nn(-c2ccc(C)cc2)c(=O)c2c(N)scc12,inconclusive: 99%
15,CCC(=O)NCCc1nc2ccccc2n1Cc1ccc(C)cc1,inactive: 91%
16,O=C(O)CCCCCn1c(SCc2cc(=O)n3cc(Cl)ccc3n2)nc2ccsc2c1=O,inconclusive: 119%
17,O=C(/C=C/c1cccc(Br)c1)N1CCN(c2cccc(C(F)(F)F)c2)CC1,inconclusive: 89%
18,CC(=O)Nc1ccc(NC(=O)c2ccccc2CC[N+](=O)[O-])cc1,inconclusive: 107%
19,Cn1cc(CC(=O)NCCN2CCOCC2)c2ccccc21,inactive: 101%
20,COc1ccc(C(=O)Nc2cc(Cl)ccc2C(=O)O)cc1,inactive: 81%
21,CCCSc1nc(C)c(C(C)=O)cc1C#N,inconclusive: 105%
